Among all 310,000 compounds or so, about 14,000 (4.5%) showed an effect of 50% or more. The effect is printed as a negative number. The list shows a part of the results.
These compounds were tested against human ether-à-go-go-related gene (hERG) potassium channel (human, UniProt Q12809) (assay: primary screen, population patch clamp on CHO cells stably expressing hERG).
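Note: peak tail current of the secondary pulse compared with the same well before compound.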

Sequence of human ether-à-go-go-related gene (hERG) potassium channel (Q12809 whole entry, looked up): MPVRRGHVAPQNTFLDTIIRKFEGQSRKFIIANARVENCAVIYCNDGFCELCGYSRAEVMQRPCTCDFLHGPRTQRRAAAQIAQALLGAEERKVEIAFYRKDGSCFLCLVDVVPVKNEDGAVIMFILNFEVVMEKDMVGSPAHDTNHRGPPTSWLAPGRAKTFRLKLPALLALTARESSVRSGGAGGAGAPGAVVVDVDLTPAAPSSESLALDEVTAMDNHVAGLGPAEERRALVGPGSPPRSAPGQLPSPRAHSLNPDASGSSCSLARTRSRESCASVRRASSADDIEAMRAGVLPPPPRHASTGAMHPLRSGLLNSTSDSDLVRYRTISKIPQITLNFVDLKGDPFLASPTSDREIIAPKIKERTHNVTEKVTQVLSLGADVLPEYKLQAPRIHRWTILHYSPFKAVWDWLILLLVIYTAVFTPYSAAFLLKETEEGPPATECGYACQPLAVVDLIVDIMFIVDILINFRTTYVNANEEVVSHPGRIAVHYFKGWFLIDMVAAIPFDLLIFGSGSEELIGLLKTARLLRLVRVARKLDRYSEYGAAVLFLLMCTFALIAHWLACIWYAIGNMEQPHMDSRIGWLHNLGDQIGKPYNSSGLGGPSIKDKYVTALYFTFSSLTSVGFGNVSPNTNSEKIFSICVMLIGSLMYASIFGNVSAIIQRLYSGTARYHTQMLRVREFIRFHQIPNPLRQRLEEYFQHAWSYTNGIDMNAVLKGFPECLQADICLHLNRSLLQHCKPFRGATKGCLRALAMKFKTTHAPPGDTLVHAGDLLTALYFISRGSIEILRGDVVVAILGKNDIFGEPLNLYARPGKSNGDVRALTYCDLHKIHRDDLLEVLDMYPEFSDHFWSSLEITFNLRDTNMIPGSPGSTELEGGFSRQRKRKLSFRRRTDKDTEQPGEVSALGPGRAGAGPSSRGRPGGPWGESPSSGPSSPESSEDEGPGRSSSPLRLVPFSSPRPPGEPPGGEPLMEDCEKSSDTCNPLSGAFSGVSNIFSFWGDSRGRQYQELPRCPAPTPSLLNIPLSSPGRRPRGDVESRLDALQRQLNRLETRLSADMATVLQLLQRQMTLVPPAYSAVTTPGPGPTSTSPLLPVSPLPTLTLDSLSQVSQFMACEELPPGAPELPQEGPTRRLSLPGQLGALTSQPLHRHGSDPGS

Row | SMILES | hERG current change (%, negative = inhibition) at 10uM [%]
1 | COc1cccc(NC(=O)CSc2nnc(-c3ccc(C)cc3)o2)c1 | 2.14
2 | Cc1cc(C)nc(NS(=O)(=O)c2ccc(NC(=O)c3ccc(S(=O)(=O)N4CCOCC4)cc3)cc2)n1 | -0.968
3 | Cc1ccc(S(=O)(=O)Cc2cc(F)c([N+](=O)[O-])cc2[N+](=O)[O-])cc1 | -14.3
4 | O=C(Cn1nnc(-c2ccccc2NC(=O)c2ccccc2)n1)Nc1ccc2c(c1)OCCO2 | 1.49
5 | Cc1nn(C)cc1/C=N/NC(=S)Nc1ccc(Cl)cc1Cl | 20.5
6 | COc1cccc(CNC(=O)COc2cc(O)c3c(c2)OC(C)(C)CC3=O)c1 | -8.35
7 | CSc1ccccc1C(=O)Nc1cc(C)ccc1C | -20.1
8 | CCCCc1nc2cc(C(=O)N3CCCC(COC)C3)ccc2o1 (centres unmarked) | -9.75
9 | COc1ccccc1CN1CC(C(=O)N2CCC(C(=O)c3ccccc3)CC2)CCC1=O (centres unmarked) | -14.4
10 | CC(C)c1ccc(NC2CCCN(C(=O)c3ccnc(Cl)c3)C2)cc1 (centres unmarked) | -4.89
11 | CC(C)N1C(=O)CC2(CC[N+](C)(CCOC(=O)C(c3ccccc3)c3ccccc3)CC2)C1=O.[I-] (centres unmarked) | 5.21
12 | O=C(Nc1ccc(Br)cc1)c1cccn1-c1ncc(C(F)(F)F)cc1Cl | 3.91
13 | CC(C)CN(C(=O)CN(C)C(=O)c1ccco1)c1c(N)n(CC(C)C)c(=O)[nH]c1=O | 18.8
14 | CNc1c([N+](=O)[O-])cnn1-c1ccccc1F | 9.49
15 | Cc1ccsc1CN1CC(=O)N(c2c(C)cccc2C)C1=S | -31.3
16 | CN1CCN(c2ccc(S(=O)(=O)N3CCOCC3)cc2NC(=O)CC(C)(C)C)CC1 | 8.55
17 | NNC(=O)c1cccc(COCC(F)(F)C(F)F)c1 | -2.32
18 | O=C(Nc1ccc(F)cc1F)c1csc(-c2ccncc2)n1 | -23.8
19 | O=C(NCc1cccnc1)C1CCCN(S(=O)(=O)c2ccc(Cl)cc2)C1 (centres unmarked) | -26.9
20 | O=c1[nH]c(=S)[nH]c2c1CN(Cc1ccc(F)cc1)CC2 | 14.8
21 | Cc1ccc(NC(=O)CC2SC(=NC3CCCCC3)NC2=O)cc1 (centres unmarked) | -9.82
22 | Cc1nn(Cc2c(F)c(F)c(F)c(F)c2F)c(C)c1NC(=O)c1ccc(COc2ccc(F)cc2)o1 | -3.92

Row | SMILES | hERG current change (%, negative = inhibition) at 10uM [%]
23 | N#CC1=C2N=C(N)c3ccccc3N2C2=C(C(=O)CCC2)C1c1ccccc1F (centres unmarked) | -14.9
24 | Cl.N=c1ccn2c(n1)O[C@H]1[C@H](O)[C@@H](CO)O[C@H]12 | 18.7
25 | CCOC(=O)C(C)Oc1cccc2c(=O)n(CC(=O)Nc3ccc4c(c3)OCCO4)ccc12 (centres unmarked) | 15.1
26 | CCOC(=O)c1nn(-c2ccccc2)c(=O)c(C#N)c1C | 13.5
27 | O=C(COc1ccccc1)N/N=C/c1sc(=O)n(Cc2cccc(C(=O)O)c2)c1Cl | 13.9
28 | NS(=O)(=O)c1ccc(-n2nncc2-c2ccco2)cc1 | 17.8
29 | O=C(CCN1CCN(S(=O)(=O)c2cccc([N+](=O)[O-])c2)CC1)Nc1ccccc1F | -6.5
30 | CCN(CC)C(=O)CSc1nnnn1-c1ccc(F)c(Cl)c1 | -3.28
31 | COc1ccc(-n2ncc3c(N4CCN(c5cc(C)ccc5C)CC4)ncnc32)cc1 | 2.95
32 | O=C(CNC(=O)c1ccccc1)N/N=C/c1ccccc1Cl | -0.473
33 | Fc1ccccc1Cc1noc(CN2CCCC(CN3CCOCC3)C2)n1 (centres unmarked) | -1.22
34 | Cc1ccc(S(=O)(=O)N2CCC(C(=O)N/N=C/c3ccccc3[N+](=O)[O-])CC2)cc1 | 8.21
35 | Cc1ncc(S(=O)(=O)c2ccc(Cl)cc2)c(N)n1 | -0.624
36 | CCC(Sc1nc2c(c(=O)n1CC)SC(C)C2)C(=O)OC (centres unmarked) | 3.32
37 | CCNS(=O)(=O)c1ccc2c3c(cccc13)C(=O)N2 | 1.85
38 | CC(C)(C)OC(=O)N1CCC(NC(=O)c2ncn(Cc3ccccc3)c2C(=O)NC2CCN(C(=O)OC(C)(C)C)CC2)CC1 | 12.1
39 | NC(N)=NCc1cccc(I)c1.O=S(=O)(O)O | 11.6
40 | CCN(CC)C(=O)CSC(Nc1ccc(F)cc1)=C(C#N)C#N | 7.9
41 | CCC1SC(CC)C(=O)N(CC(=O)NCCc2ccccc2)C1=O (centres unmarked) | 5.62
42 | CCOc1ccccc1N1CCN(C(=O)CNC(=O)c2ccc(OC)c(OC)c2)CC1 | 11.9
43 | O=[N+]([O-])c1ccc2cn(-c3ccccc3)nc2c1 | -0.226
44 | Cc1c(C)n(CCN(C)C)c2ncnc(NCc3ccccc3)c12 | -36.8

— paper PMC4336329 (PLoS ONE, 2015)
